Measured values published in PubChem BioAssay AID624418 (National Center for Advancing Translational Sciences (NCATS), 2012).
In all, about 410,000 compounds went through this assay and about 530 (0.13%) were called active. The inconclusive results got no clear call from the source; some entries with a clear call stand among them for comparison. The call rests on the fitted dose curve; in most records, active means well fitted inhibition curve with a large enough effect; inconclusive means small, poorly fitted or top-dose-only effect, or another doubt; inactive means no such curve, though single readings can be large or run the other way. Potencies beside an inconclusive call are fits to weak or partial responses and may not hold up.

Assay: qHTS of GLP-1 Receptor Inverse Agonists: Cytotox Screen
Conditions: HEK293 cAMP-luciferase reporter cells, luminescence, 24 h; activity change, negative = inhibition: at 38.3 µM (top of the series) unless noted
In short: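 Quantitative HTS format, 1536 wells, 200 cells/uL seeded. Compounds: 23 nL, 24 h, 37 °C. Detection: luciferase reagent, luminescence at 12 min RT; decreased signal taken as cytotoxic.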
On the % scale 0 is the no-effect control and ±100 the full control effect; potency means the concentration at half of the fitted maximal effect.

| Structure (SMILES) | Potency | activity change, negative = inhibition |
| --- | --- | --- |
| CN(C)S(=O)(=O)n1cc(/C=C(\NC(=O)c2ccccc2Cl)C(=O)N2CCCC2)c2ccccc21 | inconclusive: 10 µM [inhibitor, single point] |  |
| COC(=O)N1CCc2c(sc(NC(=O)C3=COCCO3)c2C#N)C1 | inconclusive: 14.1 µM [inhibitor, single point] |  |
| Cc1ccccc1-c1nc(CN2CCC(C(=O)NCCCN3CCCC(C)C3)CC2)c(C)o1 (stereo not given) | inconclusive: 10 µM [inhibitor, partial curve] |  |
| CC(=O)Nc1ccc(S(=O)(=O)NC2=C(N3CCN(c4ccc(F)cc4)CC3)C(=O)c3ccccc3C2=O)cc1 | inconclusive: 28.2 µM [inhibitor, single point] |  |
| O=C(Cn1ncc(Cl)c(Cl)c1=O)c1ccc(Cl)cc1 | active: 10 µM |  |
| CCOC(=O)C1=C(C)NC(C)=C(C(=O)OCC)C1 | inactive |  |
| NC(=O)C1CCN(C2=C(NS(=O)(=O)c3ccccc3)C(=O)c3ccccc3C2=O)CC1 | inconclusive: 11.2 µM [inhibitor, partial curve, poor fit] |  |
| COc1ccc(OC)c(NS(=O)(=O)c2ccc(SC)cc2)c1 | inconclusive: 1.26 µM [inhibitor, full curve, poor fit] |  |
| Cn1c(CN2CCCC(C(=O)c3ccc4c(c3)OCO4)C2)nc2ccccc21 (stereo not given) | inconclusive: 22.4 µM [inhibitor, single point] |  |
| CCOC(=O)C1(O)CC(C)=NN1C(=O)c1cccc(Br)c1 (stereo not given) | inconclusive: 12.6 µM [inhibitor, partial curve, poor fit] |  |
| CC1CCN(C(=O)c2ccccc2NC(=O)c2cccc(S(=O)(=O)N(C)C)c2)CC1 | inconclusive: 11.2 µM [inhibitor, partial curve, poor fit] |  |
| COc1ccc(C(CNc2ccc(S(C)(=O)=O)cc2[N+](=O)[O-])N(C)C)cc1OC (stereo not given) | inconclusive: 12.6 µM [inhibitor, single point] |  |
| COc1ccc(-n2nnnc2SCC(=O)NCCc2ccccc2)cc1 |  | inactive: 1.95% |
| C/C(=N\NC(=S)Nc1cccc(C)c1)c1ccco1 | inconclusive: 3.55 µM [inhibitor, full curve, poor fit] |  |
| CCOC(=O)c1ccc(NC(=S)N(CCCN2CCCCC2)Cc2ccco2)cc1 | inconclusive: 12.6 µM [inhibitor, single point] |  |
| CCC1(C)Cc2c(sc3nnn(CC(=O)Nc4ccc(C)cc4)c(=O)c23)CO1 (stereo not given) | inconclusive: 12.6 µM [inhibitor, single point] |  |
| Cc1cc(C)c(O)c(-c2n[nH]c3c2C(c2cccc(O)c2)N(Cc2ccco2)C3=O)c1 (stereo not given) | inconclusive: 12.6 µM [inhibitor, single point] |  |
| O=c1[nH]c(=O)n(Cc2ccccc2)c2nc(-c3ccc(Oc4ccc(F)cc4)c([N+](=O)[O-])c3)n(CCO)c12 | inconclusive: 11.2 µM [inhibitor, partial curve, poor fit] |  |
| CCCCN(C)C(=O)C1CCN(Cc2ccc(OCc3ccccc3)cc2)CC1 | inconclusive: 28.2 µM [inhibitor, single point] |  |
| O=C1NC(=S)S/C1=C/c1ccc(N2CCOCC2)o1 | inconclusive: 12.6 µM [inhibitor, single point] |  |
| Cc1cccc(C)c1NC(=S)Nc1ccccc1C(=O)NCc1ccco1 |  | inactive: -7.22% |
| COc1cccc(COC(=O)C(Cc2ccccc2)NC(=O)c2ccco2)c1 (stereo not given) |  | inactive: -24.8% |

| Structure (SMILES) | Potency | activity change, negative = inhibition |
| --- | --- | --- |
| Cc1cccc(C(=O)Oc2ccc(/C=N/NC(=O)c3ccccc3O)cc2)c1 | inconclusive: 5.01 µM [inhibitor, partial curve, poor fit] |  |
| O=C(c1cccc(COc2ccc(Cl)cc2Cl)c1)N1CCN(c2ccccn2)CC1 | inconclusive: 8.91 µM [inhibitor, single point] |  |
| CCN(CC)CCCNC(=O)c1ccc2c(c1)N(Cc1c(F)cccc1Cl)C(=O)c1ccccc1S2 | inconclusive: 14.1 µM [inhibitor, single point] |  |
| COC(=O)c1ccccc1Nc1ccnc(Cl)n1 | inconclusive: 28.2 µM [inhibitor, single point] |  |
| CC(NCc1cccc(OCc2ccccc2)c1)C(O)c1ccccc1 (stereo not given) | inconclusive: 28.2 µM [inhibitor, single point] |  |
| COc1cc2ncc(S(=O)(=O)c3ccccc3)c(N3CCCC(C)C3)c2cc1OC (stereo not given) | inconclusive: 28.2 µM [inhibitor, single point] |  |
| O=C(NC(=S)N1CCN(c2c(Cl)cccc2[N+](=O)[O-])CC1)c1cccs1 | active: 7.08 µM |  |
| CN(C)CC1CC/C(=C\c2ccc(O)cc2)C1=O (stereo not given) | inconclusive: 12.6 µM [inhibitor, partial curve, poor fit] |  |
| Cc1ccccc1C(=O)NC(=S)NCc1ccccc1 | inconclusive: 28.2 µM [inhibitor, single point] |  |
| CC(=NNC(=S)N1CCCCC1)c1cccc(C)n1 | inconclusive: 0.891 µM [inhibitor, full curve, poor fit] |  |
| CCC1CCCCN1CCCNC(=O)c1ccc2c(c1)N(Cc1ccccc1F)C(=O)c1ccccc1S2(=O)=O (stereo not given) | inconclusive: 3.98 µM [inhibitor, partial curve, poor fit] |  |
| O=C1c2cccc3cc([N+](=O)[O-])cc(c23)C(=O)N1CCN1CCCC1 |  | inactive: 34.2% |
| COc1ccccc1CN1CCNC(=O)C1CC(=O)NC1Cc2ccccc2C1 (stereo not given) | inconclusive: 11.2 µM [inhibitor, single point] |  |
| Fc1ccc(Nc2nc3nonc3nc2Nc2cccc(C(F)(F)F)c2)cc1 | inconclusive: 17.8 µM [inhibitor, partial curve, poor fit] |  |
| CC(C)(C)OC(=O)[C@H](Cc1ccccc1)NC(=O)c1nc[nH]c1C(=O)N[C@@H](CCCCN)C(=O)OC(C)(C)C | inconclusive: 28.2 µM [inhibitor, single point] |  |
| Cc1ccc(/C(O)=C/C(=O)C(=O)NNC(=O)C(O)(c2ccccc2)c2ccccc2)cc1 |  | inactive: -19.5% |
| CCOC(=O)C1(CCCc2ccccc2)CCN(C2CCSCC2)CC1 | inconclusive: 28.2 µM [inhibitor, single point] |  |
| O=C(c1cc([N+](=O)[O-])ccc1N1CCCCC1)N1CCCCC1 | inconclusive: 8.91 µM [inhibitor, partial curve] |  |
| O=C(CSc1nc(-c2ccccc2)[nH]c1-c1ccccc1)Nc1ccc2c(c1)OCO2 | inconclusive: 22.4 µM [inhibitor, single point] |  |
| COc1cccc2c(SCC(=O)N/N=C/c3ccc(O)c(O)c3)cc(C)nc12 | inconclusive: 10 µM [inhibitor, partial curve] |  |
| O=C(Nc1ccc(N2CCCCC2)cc1)c1cccnc1 | inconclusive: 14.1 µM [inhibitor, single point] |  |
| Fc1ccc(Oc2nc(-c3ccccn3)nc3ccccc23)cc1 | inconclusive: 3.55 µM [inhibitor, full curve, poor fit] |  |

| Structure (SMILES) | Potency | activity change, negative = inhibition |
| --- | --- | --- |
| Cc1nc2sccn2c(=O)c1S(=O)(=O)Nc1ccc(N2CCN(S(C)(=O)=O)CC2)cc1 | inactive |  |
| Cc1occc1-c1nnc(SCC(=O)NC2CCCC2)n1C |  | inactive: -1.22% |
| CCOc1cc(/C=N/Nc2nc(N3CCCC3)nc(N3CCCC3)n2)ccc1O | inconclusive: 28.2 µM [inhibitor, single point] |  |
| Cc1sc2nc(SCC(=O)NCc3ccco3)n(Cc3ccccc3)c(=O)c2c1C | inconclusive: 28.2 µM [inhibitor, single point] |  |
| CCOc1ccc(C2C(C(=O)Nc3ccc(OC)cc3)=C(C)Nc3nc(SCc4ccc(Cl)cc4)nn32)cc1 (stereo not given) |  | inactive: 4.55% |
| N#CC(=C(O)COC(=O)Cc1c[nH]c2ccccc12)c1nc2ccccc2[nH]1 | inconclusive: 11.2 µM [inhibitor, partial curve, poor fit] |  |
| Cc1cccc(NC(=S)Nc2ccc(Br)cc2)c1 | inconclusive: 15.8 µM [inhibitor, single point] |  |
| COc1cc(C2C(C#N)=C(N)N(Nc3ccccc3)C3=C2C(=O)CC(C)(C)C3)ccc1OCc1cccc(F)c1 (stereo not given) |  | inactive: -7.39% |
| O=S(=O)(NC(=S)c1ccccc1)c1ccccc1 |  | inactive: -0.422% |
| O=C(N[C@H](CO)Cc1ccccc1)c1ccco1 | inconclusive: 2 µM [inhibitor, full curve, poor fit] |  |
| CNc1nc(-c2ccc3c(c2)CCN3C(=O)CC(C)(C)C)c(C)s1 |  | inactive: -0.444% |
| COc1ccc(/C=C(/NC(=O)c2ccco2)C(=O)NCc2ccco2)cc1 |  | inactive: 19.4% |
| COc1ccc(C2=NN(S(C)(=O)=O)C(c3cn(-c4ccccc4)nc3-c3cccs3)C2)cc1 (stereo not given) |  | inactive: 2.41% |
| CCN(CC)S(=O)(=O)c1cccc(C(=O)/C=C2/N(C)c3ccccc3C2(C)C)c1 |  | inactive: 74.6% |
| Cc1ccc(CN2C(=O)c3ccccc3Sc3ccc(C(=O)NCc4ccco4)cc32)cc1 |  | inactive: 4.04% |
| OC(CN1CCN(Cc2ccccc2)CC1)Cn1c2ccccc2c2ccccc21 (stereo not given) | inconclusive: 28.2 µM [inhibitor, single point] |  |
| c1ccc(CCn2nnnc2C(c2cccs2)N2CCN(Cc3ccc4c(c3)OCO4)CC2)cc1 (stereo not given) | inconclusive: 28.2 µM [inhibitor, single point] |  |
| CCCCCCn1cc(CN2CC(N3CCN(Cc4cccc(C)c4)CC3)CS2(=O)=O)nn1 (stereo not given) |  | inactive: -8.65% |
| CC1(C)COC(c2ccc(F)c([N+](=O)[O-])c2)=N1 | inconclusive: 17.8 µM [inhibitor, partial curve, poor fit] |  |
| COc1cc2c(cc1NCc1ccccn1)oc1ccccc12 |  | inactive: -22.8% |
| Oc1ccc(N2CCN(Cc3ccc(OCCCN4CCCCC4)cc3)CC2)cc1 | inconclusive: 7.94 µM [inhibitor, partial curve, poor fit] |  |
